The supplement of paper PMC4604168 (melanoma cell lines)
This is one part of the list. Repeats are few or missing, and single values can be far off.

Test system: MZ2-MEL
Assay: cell count relative to DMSO control; melanoma cells; higher = more viable cells
Conditions: library dose: low library concentration; 72 h; first compound 0.4 µM
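Further: cell number obtained by counting DAPI-stained nuclei in high-throughput microscope images with image analysis software, screen run in 1,536-well plates.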

Compound | cell count [%]
Cn1sc(=O)n(Cc2ccccc2)c1=O + COC(=O)c1sccc1S(=O)(=O)Nc1ccc(Nc2ccccc2)cc1OC [GSK0660] (partner dose 1 µM) | 89.3
Cn1sc(=O)n(Cc2ccccc2)c1=O + CC1(C)NC(=O)N(c2ccc([N+](=O)[O-])c(C(F)(F)F)c2)C1=O [nilutamide] (partner dose 1 µM) | 103
Cn1sc(=O)n(Cc2ccccc2)c1=O + COc1ccc(COc2ccc(Cc3cnc(N)nc3N)cc2OC)cc1 [GW2580] (partner dose 1 µM) | 95.8
C[C@@H](N)c1ccc(C(=O)Nc2ccnc3[nH]ccc23)cc1 + CCCCCCCCCCCC1=C(O)C(=O)C=C(O)C1=O [Embelin] (partner dose 1.2 µM) | 65.6
CCCCCCCCCCCCCCCCCCOP(=O)([O-])OC1CC[N+](C)(C)CC1 [Perifosine] + O=C(O)c1ccc(-c2c[nH]c3ncc(-c4ccccc4)cc23)cc1C1CCCC1 [GSK650394] (partner dose 0.16 µM) | 106
C[C@@H](N)c1ccc(C(=O)Nc2ccnc3[nH]ccc23)cc1 + CO[C@@H]1[C@H](N(C)C(=O)c2ccccc2)C[C@H]2O[C@]1(C)n1c3ccccc3c3c4c(c5c6ccccc6n2c5c31)C(=O)NC4 [Midostaurin] (partner dose 0.08 µM) | 90.1
Cn1sc(=O)n(Cc2ccccc2)c1=O + CN(NC(=O)CC(=O)NN(C)C(=S)c1ccccc1)C(=S)c1ccccc1 [STA4783] (partner dose 0.006 µM) | 101
Cn1sc(=O)n(Cc2ccccc2)c1=O + Oc1cc(-c2nc(-c3ccccc3)[nH]c2-c2ccncc2)ccc1Cl [L779450] (partner dose 0.2 µM) | 80.4
CCCCCCCCCCCCCCCCCCOP(=O)([O-])OC1CC[N+](C)(C)CC1 [Perifosine] + Cc1cc([N+](=O)[O-])ccc1NS(=O)(=O)c1cc(Cl)ccc1Cl [FH535] (partner dose 1 µM) | 94.2
C[C@@H](N)c1ccc(C(=O)Nc2ccnc3[nH]ccc23)cc1 + O=C(O)C(=O)Nc1sc2c(c1C(=O)O)CCNC2 [TCS401] (partner dose 1.66667 µM) | 79.8
C[C@@H](N)c1ccc(C(=O)Nc2ccnc3[nH]ccc23)cc1 + COc1ccc(COc2ccc(Cc3cnc(N)nc3N)cc2OC)cc1 [GW2580] (partner dose 1 µM) | 70.5
CCCCCCCCCCCCCCCCCCOP(=O)([O-])OC1CC[N+](C)(C)CC1 [Perifosine] + OCCn1cc(-c2cnc3nnn(Cc4ccc5ncccc5c4)c3n2)cn1 [PF04217903] (partner dose 1 µM) | 63.9
C[C@@H](N)c1ccc(C(=O)Nc2ccnc3[nH]ccc23)cc1 + CN(C)S(=O)(=O)c1ccc2c(c1)/C(=C/c1cc3c([nH]1)CCCC3)C(=O)N2 [SU6656] (partner dose 0.4 µM) | 87.2
Cn1sc(=O)n(Cc2ccccc2)c1=O + Cc1cc([N+](=O)[O-])ccc1NS(=O)(=O)c1cc(Cl)ccc1Cl [FH535] (partner dose 1 µM) | 90.4
Cn1sc(=O)n(Cc2ccccc2)c1=O + CC(C)CCN1c2nc(Nc3cc(F)c(O)c(F)c3)ncc2N(C)C(=O)C1C [BID1870] (partner dose 0.2 µM) | 97.1
C[C@@H](N)c1ccc(C(=O)Nc2ccnc3[nH]ccc23)cc1 + c1cc(-c2cnn3cc(-c4ccc(OCCN5CCCCC5)cc4)cnc23)ccn1 [Dorsomorphin] (partner dose 0.4 µM) | 76.2
CCCCCCCCCCCCCCCCCCOP(=O)([O-])OC1CC[N+](C)(C)CC1 [Perifosine] + CC(C)(C)c1cnc(CSc2cnc(NC(=O)C3CCNCC3)s2)o1 [SNS-032] (partner dose 0.01 µM) | 101
C[C@@H](N)c1ccc(C(=O)Nc2ccnc3[nH]ccc23)cc1 + O=c1cc(-c2cccc3c2Sc2ccccc2S3)oc(N2CCOCC2)c1 [KU55933] (partner dose 1 µM) | 73.4
CCCCCCCCCCCCCCCCCCOP(=O)([O-])OC1CC[N+](C)(C)CC1 [Perifosine] + C[C@@H]1CCN(C(=O)CC#N)C[C@@H]1N(C)c1ncnc2[nH]ccc12 [CP690550] (partner dose 1 µM) | 100
